Experimental findings from PubChem BioAssay AID1508642 (National Center for Advancing Translational Sciences (NCATS), 2021) are described below.

Structures are written as SMILES. Out of some 43,000 compounds screened, about 200 (0.47%) were called active. Inconclusive results (about 12%) are left out. Calls follow the shape of the dose curve; as a rule, active = well fitted cell-killing curve with a large enough effect; inconclusive = small, poorly fitted or top-dose-only effect, or effect the other way; inactive = flat fitted curve, though single readings scatter. Some of the results follow.
% is scaled to controls: 0 for no effect and ±100 for the full control effect; potency is read from the fitted curve at half-maximal effect.

A short description of the experiment: Cell viability qHTS assay in S16 Pmp22-F2sN cells. Also: nearly all actives have a fitted effect of over 65% in size. Particulars: S16 Pmp22-F2sN Schwann cells viability, CellTiter-Glo, 24 h; series mostly up to 57.5 µM; activity change, negative = cytotoxicity: at the top concentration. The method in brief: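 Viability was measured by CellTiter-Glo luminescence (15 min, room temperature). This followed 24 h at 37 °C of compound exposure (23 nL pin transfer) in S16 Pmp22-F2sN Schwann cells, 500-1,000 per well.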
Background: In qHTS, concentration-response curves come from the screen itself.
Consider `O=C(NCCc1csc2nc(-c3ccc(F)cc3)nn12)c1ccco1`, for which the “activity change, negative = cytotoxicity” value was inactive: -2.62%.

Turning to `Cc1ccc(N2CC(NC(=O)C(=O)c3c[nH]c4ccccc34)CC2=O)cc1` (stereo not drawn), the “activity change, negative = cytotoxicity” value was inactive: -3.49%.

On to `COc1ccccc1OCC(=O)NCC1(N(C)C)CCCCC1`, for which the “activity change, negative = cytotoxicity” value is inactive: 0.782%.

As to `CC(C)CCNC(=O)c1ccc2c(c1)N(Cc1ccccc1F)C(=O)c1ccccc1S2=O` (stereo not drawn), the “activity change, negative = cytotoxicity” value is inactive: -5.02%.

`Cc1ccc(Cn2c(CCCNC(=O)C3CCCCC3)nc3ccccc32)cc1`: the “activity change, negative = cytotoxicity” value was inactive: -2.82%.

In the case of `O=C(Cn1ncc2c(Cl)cccc21)NCc1cccc(Br)c1`, the “activity change, negative = cytotoxicity” value was inactive: -0.431%.

In the case of `COc1ccc(C2=C(C)C(=O)N(Cc3ccc(C(=O)Nc4ccc(F)cc4C)cc3)S2(=O)=O)cc1`, the “activity change, negative = cytotoxicity” value was inactive: -0.147%.

Regarding `CCN(CC)CCn1c(=N)n(CCOc2ccccc2Cl)c2ccccc21`, the Potency was active: 28.2 µM.

For the compound `Cc1cccc(-c2nc(CS(=O)CC(=O)NCc3ccc(Cl)cc3)c(C)o2)c1` (stereo not drawn), the “activity change, negative = cytotoxicity” value is inactive: -4.06%.

Turning to `O=C1CN(C(=O)c2ccc(S(=O)(=O)N3CCCCC3)cc2)C(c2ccc(F)cc2)c2cc(Cl)ccc2N1` (stereo not drawn), the “activity change, negative = cytotoxicity” value was inactive: -14.6%.

As for `Cc1ccc2nc(-c3cccc(NC(=O)c4cccc5c(Cl)cccc45)c3)oc2c1`, the “activity change, negative = cytotoxicity” value is inactive: -20.4%.

Take `CCOC(=O)c1c(C)oc2nc(C)nc(NCC3CCN(Cc4ccccc4C)CC3)c12`: the “activity change, negative = cytotoxicity” value was inactive: 12.2%.

Consider `O=C(NCC(c1cccnc1)N1CCOCC1)C(=O)Nc1ccc(Cl)cc1` (stereo not drawn), for which the “activity change, negative = cytotoxicity” value is inactive: 1.61%.

`COc1ccc(-c2[nH]ncc2C(=O)NCc2cccc(Cl)c2)cc1`: the “activity change, negative = cytotoxicity” value was inactive: -13.7%.

As to `COc1cccc(-c2cn3c(n2)sc2cc(C(=O)NCc4ccccc4F)ccc23)c1`, the “activity change, negative = cytotoxicity” value is inactive: 13.5%.

For `CCOC(=O)c1cc(-c2ccccc2)n(CC(=O)NCc2ccc(C)cc2)c1C`, the “activity change, negative = cytotoxicity” value was inactive: 2.6%.

In the case of `COc1ccc(CNC(=O)CCCN2C(=O)CCn3nc(-c4cn(C)c5ccccc45)cc32)cc1`, the “activity change, negative = cytotoxicity” value is inactive: -13.3%.

As for `O=C(NCCC1=CCCCC1)C1CCN(C(=O)N2CCOc3ccccc32)CC1`, the “activity change, negative = cytotoxicity” value is inactive: 4.57%.

As for `COc1ccc(OC)c(NC(=O)Cn2ncc3c2-c2ccccc2OC3)c1`, the “activity change, negative = cytotoxicity” value was inactive: 0.207%.

Turning to `O=C(NCCc1ccc(Cl)cc1)C1(c2cccs2)CCOCC1`, the “activity change, negative = cytotoxicity” value is inactive: 22.9%.

For `Cc1ccc(-n2c(=O)c3cccnc3n2CC(=O)Nc2ccc(C)cc2Cl)cc1`, the “activity change, negative = cytotoxicity” value is inactive: -6.9%.

For `Cc1c(Cl)cccc1NC(=O)CSc1nc(=O)[nH]c2c1CCCC2`, the “activity change, negative = cytotoxicity” value was inactive: -13%.

Regarding `CC(C)(C)c1ccc(C(=O)Nc2ccc(OCc3cc(=O)n4ccsc4n3)cc2)cc1`, the “activity change, negative = cytotoxicity” value is inactive: 13.8%.

Consider `Cc1cc(N2CCN(c3ccccc3)CC2)n2cnnc2n1`, for which the “activity change, negative = cytotoxicity” value is inactive: 3.45%.

For the compound `COc1ccc(CCNC(=O)c2ccc(Cn3c(=O)c4ccccc4n(Cc4ccc(F)cc4Cl)c3=O)cc2)cc1OC`, the “activity change, negative = cytotoxicity” value is inactive: 13.3%.

With `CCC(Sc1nc2cc(OC)c(OC)cc2c(=O)n1Cc1ccc(OC)cc1)C(=O)NCCOC` (stereo not drawn), the “activity change, negative = cytotoxicity” value is inactive: -4.47%.

Turning to `CC(=O)c1ccc(NC(=O)c2cc(S(=O)(=O)N3CCOCC3)ccc2C)cc1`, the “activity change, negative = cytotoxicity” value is inactive: 3.57%.

`Cc1nc(N2CCOCC2)c2c(C(=O)N(C)c3ccccc3)c(C)oc2n1`: the “activity change, negative = cytotoxicity” value is inactive: 0.616%.

Turning to `CC(C)Cc1nn2c(=O)cc(COC(=O)c3cccc(NS(C)(=O)=O)c3)nc2s1`, the “activity change, negative = cytotoxicity” value is inactive: 13.7%.

`Cc1cc(C)cc(OCC(=O)N(Cc2ccc(Cl)cc2)C2CCS(=O)(=O)C2)c1` (stereo not drawn): the “activity change, negative = cytotoxicity” value is inactive: 1.23%.

As to `COc1ccccc1CNC(=O)C1CCN(C2=NS(=O)(=O)C(c3ccc(C)c(C)c3)=C2C)CC1`, the “activity change, negative = cytotoxicity” value was inactive: -14.1%.

For the compound `Cc1nc(-c2ccc(F)cc2)sc1CCNC(=O)c1ccc(OC(C)C)cc1`, the “activity change, negative = cytotoxicity” value was inactive: -0.373%.

On to `CCN1CCN(C(=O)c2ccc3c(c2)N(Cc2ccccc2)C(=O)c2ccccc2S3(=O)=O)CC1`, for which the “activity change, negative = cytotoxicity” value is inactive: 1.33%.

With `CCOc1ccc(-c2cn3c(n2)sc2cc(C(=O)N4CCCC(C)C4)ccc23)cc1` (stereo not drawn), the “activity change, negative = cytotoxicity” value is inactive: -10.7%.

For `CC1CCN(c2csc3ccc(F)cc3c2=O)CC1`, the “activity change, negative = cytotoxicity” value was inactive: 7.99%.

Take `Cc1ccccc1CNC(=O)C(=O)NCC(c1ccc2c(c1)OCO2)N1CCOCC1` (stereo not drawn): the “activity change, negative = cytotoxicity” value was inactive: -0.91%.

Regarding `CN(CCCNC(=O)Cn1ncc2c([nH]c3ccccc32)c1=O)Cc1ccccc1`, the “activity change, negative = cytotoxicity” value was inactive: 3.39%.

As for `Cc1ccc2c(c1)-c1c(cnn1CC(=O)N1CCN(c3cc(C)ccc3C)CC1)CO2`, the “activity change, negative = cytotoxicity” value was inactive: 3.99%.

As for `COCCc1nn2c(=O)cc(COC(=O)c3ccco3)nc2s1`, the “activity change, negative = cytotoxicity” value is inactive: 10.2%.

For the compound `O=C(NCc1ccc(Cl)cc1)c1ccc(CNS(=O)(=O)c2ccc(F)cc2)cc1`, the “activity change, negative = cytotoxicity” value was inactive: 0.29%.

Regarding `COc1ccc(Cl)cc1NC(=O)CSc1nnc2[nH]c(=O)cc(C)n12`, the “activity change, negative = cytotoxicity” value is inactive: -2.86%.

Regarding `CCOc1ccc(-c2nc(C(N)=O)c3c(n2)n(-c2ccc4c(c2)OCO4)c(=O)n3CC)cc1`, the “activity change, negative = cytotoxicity” value is inactive: 23%.

For the compound `COc1ccccc1CNc1ncnc2c1c(-c1ccccc1)cn2-c1ccc(Br)cc1`, the “activity change, negative = cytotoxicity” value is inactive: -7.49%.

For the compound `CCN(CC)c1ccc(NC(=O)Cn2c3ncccc3c(=O)n2-c2ccccc2)c(C)c1`, the “activity change, negative = cytotoxicity” value was inactive: -0.527%.

Turning to `COc1cc2c(=O)c(C(=O)c3ccc(F)cc3)cn(Cc3cccc(F)c3)c2cc1OC`, the “activity change, negative = cytotoxicity” value is inactive: -17.5%.

With `Cc1ccc(C(=O)NCCC(C)C)cc1NC(=O)c1nsc2ccccc12`, the “activity change, negative = cytotoxicity” value is inactive: -19.4%.

Consider `COC(=O)c1cc(S(=O)(=O)N2CCN(c3cc(Cl)ccc3C)CC2)c[nH]1`, for which the “activity change, negative = cytotoxicity” value is inactive: 0.318%.

For the compound `CC1=C(C(N)=O)C(c2ccccc2F)n2nc(-c3ccc(Cl)cc3)nc2N1` (stereo not drawn), the “activity change, negative = cytotoxicity” value was inactive: -2.1%.
